The campaign covered roughly 410,000 compounds. About 1,200 (0.29%) were called active. This list was built around the results that the source calls inconclusive (neither active nor inactive); the mix of calls is not that of the screen. Calls come from the whole dose curve; as a rule, active = well fitted activation curve with a large enough effect; inconclusive = small, poorly fitted or top-dose-only effect; inactive = flat fitted curve, though single readings scatter. Potencies of inconclusive entries are doubtful fits and often do not repeat.
Test: qHTS of Nrf2 Activators; note: nearly all actives have a fitted effect of over 65% in size; for activation: % of control where 0% means no effect
Settings: AREc32 ARE-luciferase reporter (MCF7-derived line), luminescence, 24 h; activation: at 46.1 µM (top of the series)
Procedure, shortened: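 Luciferase luminescence (Steady-Glo, 30 min at room temperature) served as the read-out of ARE activation in AREc32 cells treated with compounds for 24 hr at 37 deg C.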
Potency is the fitted concentration of half-maximal effect; tags give direction and shape of the fitted curve.

Compound	Potency	activation
CCOC(=O)COc1nc(-c2ccco2)cc(-c2ccco2)c1C#N	inconclusive: 1.12 µM [activator, partial curve, poor fit]	–
Cc1cc(C)c(S(=O)(=O)N2CCCC(C(=O)NCc3ccncc3)C2)c(C)c1 (centres undefined)	–	inactive: 0.0405%
COc1ccc(NC(=O)c2sc(Cl)nc2-c2ccccc2)cc1	inconclusive: 14.1 µM [activator, single point]	–
CCCC1=Nc2cc(C(=O)NCCc3ccc(OCC)cc3)ccc2Sc2ccccc21	–	inactive: -0.121%
C/C(=N\NC(N)=O)c1ccc(Cl)s1	inconclusive: 11.2 µM [activator, partial curve]	–
O=C(Nc1nc(-c2ccco2)cs1)c1ccccc1	inconclusive: 14.1 µM [activator, partial curve, poor fit]	–
Cc1cc(C)c(C(=O)/C=C/C=C/c2ccccc2)c(=O)[nH]1	inconclusive: 20 µM [activator, single point]	–
CC(C)(C)c1nnc(NC(=O)CCS(=O)(=O)c2ccccc2)s1	active: 15.8 µM	–
Cc1ccc(SC(CC(=O)c2ccc(C(C)(C)C)cc2)C(=O)O)cc1 (centres undefined)	inconclusive: 3.55 µM [activator, single point]	–
COc1cc(SC)ccc1C(=O)Nc1ccccn1	active: 12.6 µM	–
CC(=O)O[C@H]1CC(C)(C)C(=C=C/C(C)=C/C=C/C(C)=C/C=C/C=C(C)/C=C/C=C(\C)C(=O)C[C@@]23O[C@]2(C)C[C@@H](O)CC3(C)C)[C@](C)(O)C1	inconclusive: 22.4 µM [activator, single point]	–
N#C/C(=C(/O)c1ccc(-c2cccc([N+](=O)[O-])c2)o1)c1nc2ccccc2s1	inconclusive: 2.51 µM [activator, partial curve, poor fit]	–
Nc1nccc(SCc2ccc(Cl)cc2Cl)n1	–	inactive: 2.6%
Cn1c(CCN2CCCC2)nc2cc(NS(=O)(=O)c3ccccc3)ccc21	inconclusive: 31.6 µM [activator, single point]	–
Cc1ccc(/C=C2/CNC/C(=C/c3ccc(C)cc3)C2=O)cc1	inconclusive: 5.62 µM [activator, single point]	–
Oc1ccc(Br)cc1C1Nc2ccccc2S1 (centres undefined)	inconclusive: 12.6 µM [activator, partial curve, poor fit]	–
O=C(/C=C/c1ccco1)Nc1ccc(-c2nc3ccccc3[nH]2)cc1	–	inconclusive: 89.2% [activator]
Cn1nc(C(=O)NCc2ccccn2)c2ccccc2c1=O	–	inactive: 4.74%
COc1ccc(-c2sc3ccc(OC)cc3c2C#CCCO)cc1	inconclusive: 7.08 µM [activator, partial curve, poor fit]	–
Cc1nc(-c2ccccc2)nc2[nH]ccc(=O)c12	inconclusive: 20 µM [activator, single point]	–
O=C(Nc1cccn2ncnc12)c1ccc(Cl)cc1	inconclusive: 12.6 µM [activator, partial curve]	–
Clc1ccccc1C1=CC(c2ccco2)n2nnnc2N1 (centres undefined)	inconclusive: 22.4 µM [activator, single point]	–

Compound	Potency	activation
CC(C)(C)c1cc(CSC(=S)NC2CCS(=O)(=O)C2)c(Br)c(C(C)(C)C)c1 (centres undefined)	inconclusive: 25.1 µM [activator, single point]	–
CCOC(=O)C(C)N1C(=O)S/C(=C/c2ccc3c(c2)n(C)c(=O)n3C)C1=O (centres undefined)	inconclusive: 20 µM [activator, single point]	–
O=C(Nc1cccc(O)c1)c1c(O)c2ccccc2[nH]c1=O	inconclusive: 10 µM [activator, partial curve]	–
Cc1ccccc1NC(=O)/C(C#N)=C/c1ccc[nH]1	inconclusive: 17.8 µM [activator, single point]	–
CN(C)C(=O)CSc1cccc2cccnc12	inconclusive: 22.4 µM [activator, single point]	–
OC(c1ccco1)c1nc(-c2cccs2)cs1 (centres undefined)	inconclusive: 15.8 µM [activator, single point]	–
CC1=NNC(=O)/C1=C\c1cn(-c2ccccc2)nc1-c1ccc(Cl)cc1	inconclusive: 4.47 µM [activator, single point]	–
N#C/C(=C\c1ccco1)Sc1nc2ccccc2s1	active: 11.2 µM	–
O=C(Nc1cc(Br)ccc1O)c1cc(-c2cccs2)on1	inconclusive: 11.2 µM [activator, partial curve, poor fit]	–
C1=C(c2ccccc2)CCN(c2nc3ccccc3n3cnnc23)C1	inconclusive: 12.6 µM [activator, partial curve]	–
Cc1ccccc1CS(=O)(=O)c1ccc(C(=O)N2CCOCC2)cc1[N+](=O)[O-]	inconclusive: 17.8 µM [activator, partial curve, poor fit]	–
O=C1C(=Cc2ccncc2)CCCc2ccccc21	inconclusive: 35.5 µM [activator, single point]	–
O=C(CN1CCOCC1)N1N=C(c2cccs2)CC1c1cccs1 (centres undefined)	–	inactive: 2.7%
Cc1ccc(NC(=O)CCc2nc3cccnc3n2-c2ccccc2)cc1	–	inactive: 0.109%
Cc1noc(C)c1-c1ccc(C(=O)Nc2cccc(NS(C)(=O)=O)c2)c2occc12	inconclusive: 15.8 µM [activator, single point]	–
O=C(CC(c1cccs1)N1Cc2ccccc2C1=O)Nc1ccc(Cl)cc1 (centres undefined)	–	inactive: -0.975%
COc1ccc(/C=C/C(=O)c2c(C)cc(C)[nH]c2=O)c2ccccc12	inconclusive: 11.2 µM [activator, partial curve]	–
CCn1c(=O)cc(SCC(=O)N2CCN(C3CCCCC3)CC2)c2ccccc21	inconclusive: 15.8 µM [activator, partial curve, poor fit]	–
Cc1ccc(S(=O)(=O)CCC(=O)Nc2sccc2C#N)cc1	inconclusive: 22.4 µM [activator, single point]	–
Cc1ccc(C2NC(=O)c3ccccc3N2)c(C)c1 (centres undefined)	–	inactive: 2.39%
C[C@@H]1CN([C@@H](C)CO)C(=O)CCCn2nncc2CO[C@@H]1CN(C)C(=O)Nc1ccccc1	–	inactive: -1%
Cc1cc(NC(=O)c2ccccc2)nc(C)n1	inconclusive: 17.8 µM [activator, partial curve, poor fit]	–

Reference: PubChem BioAssay AID624171 (National Center for Advancing Translational Sciences (NCATS), 2012)
